# Laboratory results published in the supplement of paper PMC4967469.
# IC50 is the fitted dose that halves viability relative to control wells, and lower means more sensitive; fits outside the tested doses are given as limits. AUC, from the same fit, is the share of area under the viability curve across the 256-fold dose range; the more sensitive the line, the further below 1. For some of these results: The top dose, if marked as inferred, comes from the curve model; the source does not state it.
# How the values were obtained:
# Assay in all cases: Viability of human cancer cell lines after 72 h of drug (GDSC screen)
# CI-1040 = compound: O=C(NOCC1CC1)c1ccc(F)c(F)c1Nc1ccc(I)cc1Cl [CI-1040]; conditions: top dose 10 µM; top dose inferred
# Experimental: (§1)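 Human cancer cell lines in 384-well plates, medium with 10% serum, drug for 72 h over a 256-fold dose range (nine 2-fold or five 4-fold steps up to the top dose). Adherent lines were fixed and stained with the nucleic acid dye Syto60, suspension lines read with resazurin; signal relative to control wells, capped at 0 and 100%. One two-parameter sigmoid per drug and line, fitted in a mixed model over all curves with the slope shared within a line.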
# Temozolomide = compound: Cn1nnc2c(C(N)=O)ncn2c1=O [Temozolomide]; conditions: top dose 30 µM
# Experimental: as §1
# XL-880 = compound: COc1cc2c(Oc3ccc(NC(=O)C4(C(=O)Nc5ccc(F)cc5)CC4)cc3F)ccnc2cc1OCCCN1CCOCC1 [XL-880]; conditions: top dose 5.12 µM; top dose inferred
# Experimental: as §1
# IPA-3 = compound: Oc1ccc2ccccc2c1SSc1c(O)ccc2ccccc12 [IPA-3]; conditions: top dose 32 µM; top dose inferred
# Experimental: as §1
# ZG-10 = compound: CN(C)C/C=C/C(=O)Nc1ccc(C(=O)Nc2cccc(Nc3nccc(-c4cccnc4)n3)c2)cc1 [ZG-10]; conditions: top dose 10 µM; top dose inferred
# Experimental: as §1
# Tubastatin A = compound: CN1CCc2c(c3ccccc3n2Cc2ccc(C(=O)NO)cc2)C1 [Tubastatin A]; conditions: top dose 20 µM
# Experimental: as §1
Cell Line,AUC (CI-1040),IC50 (CI-1040) [µM],AUC (Temozolomide),IC50 (Temozolomide) [µM],AUC (XL-880),IC50 (XL-880) [µM],AUC (IPA-3),IC50 (IPA-3) [µM],AUC (ZG-10),IC50 (ZG-10) [µM],AUC (Tubastatin A),IC50 (Tubastatin A) [µM]
"HCC1954 (breast, adherent)",0.919,> 10,0.981,> 30,0.975,> 5.12,0.837,26.7,0.831,7.85,0.974,> 20
"RERF-LC-MS (lung adenocarcinoma, adherent)",0.817,5.78,0.984,> 30,0.501,0.322,0.879,> 32,0.922,> 10,0.987,> 20
"SKN (uterus, adherent)",0.778,4.95,0.896,> 30,0.866,> 5.12,0.872,> 32,0.692,2.44,0.961,> 20
"MDA-MB-330 (breast, adherent)",0.942,> 10,0.984,> 30,0.916,> 5.12,0.962,> 32,0.758,3.94,0.931,> 20
"H2731 (mesothelioma, adherent)",0.899,> 10,0.982,> 30,0.585,0.568,0.896,> 32,0.745,3.55,0.732,6.39
"JEG-3 (urogenital system, adherent)",0.937,> 10,0.985,> 30,0.991,> 5.12,0.875,26.3,0.908,> 10,0.989,> 20
"MOG-G-UVW (glioma, adherent)",0.825,5.8,0.933,> 30,0.587,0.551,0.965,> 32,0.706,2.33,0.94,> 20
"MHH-ES-1 (Ewing sarcoma, adherent)",0.915,> 10,0.966,> 30,0.56,0.466,0.981,> 32,0.5,0.627,0.86,16.4
"D-542MG (glioma, adherent)",0.984,> 10,0.982,> 30,0.71,1.45,0.811,21.9,0.781,5.15,0.966,> 20
"G-401 (kidney, adherent)",0.879,> 10,0.981,> 30,0.465,0.254,0.68,6.71,0.909,> 10,0.886,> 20
"WM278 (melanoma, adherent)",0.672,2.01,0.982,> 30,0.59,0.582,0.984,> 32,0.669,1.98,0.981,> 20
"SU8686 (pancreas, adherent)",0.679,2.11,0.984,> 30,0.789,2.58,0.981,> 32,0.853,9.33,0.98,> 20
"TK (B-cell lymphoma, suspension)",0.985,> 10,0.97,> 30,0.599,0.581,0.829,17.6,0.826,5.36,0.892,> 20
"KYSE-220 (oesophagus, adherent)",0.82,6.13,0.926,> 30,0.678,1.04,0.981,> 32,0.714,2.62,0.984,> 20
"HuP-T3 (pancreas, adherent)",0.639,1.65,0.97,> 30,0.675,1.1,0.954,> 32,0.687,2.37,0.934,> 20
"HEC-1 (endometrium, adherent)",0.975,> 10,0.988,> 30,0.872,4.54,0.891,> 32,0.704,2.29,0.989,> 20
"H3118 (head and neck, adherent)",0.425,0.382,0.972,> 30,0.521,0.368,0.942,> 32,0.635,1.53,0.905,> 20
"NCI-H1651 (lung adenocarcinoma, adherent)",0.956,> 10,0.982,> 30,0.852,4.44,0.946,> 32,0.896,> 10,0.984,> 20
"SNG-M (endometrium, adherent)",0.914,> 10,0.983,> 30,0.622,0.687,0.687,6.6,0.579,1.02,0.984,> 20
"639-V (bladder, adherent)",0.734,2.56,0.991,> 30,0.717,1.18,0.686,6.06,0.807,4.23,0.989,> 20
"MES-SA (uterus, adherent)",0.979,> 10,0.99,> 30,0.992,> 5.12,0.831,16.3,0.617,1.25,0.991,> 20
"COR-L23 (large cell lung carcinoma, adherent)",0.862,8.15,0.953,> 30,0.797,2.35,0.709,7.65,0.841,6.67,0.921,> 20
"HCC38 (breast, adherent)",0.945,> 10,0.985,> 30,0.626,0.734,0.976,> 32,0.83,6.96,0.91,> 20
"MOG-G-CCM (glioma, adherent)",0.837,8.31,0.979,> 30,0.539,0.415,0.882,> 32,0.712,2.77,0.918,> 20

Cell Line,AUC (CI-1040),IC50 (CI-1040) [µM],AUC (Temozolomide),IC50 (Temozolomide) [µM],AUC (XL-880),IC50 (XL-880) [µM],AUC (IPA-3),IC50 (IPA-3) [µM],AUC (ZG-10),IC50 (ZG-10) [µM],AUC (Tubastatin A),IC50 (Tubastatin A) [µM]
"DBTRG-05MG (glioma, adherent)",0.744,3.58,0.976,> 30,0.66,0.964,0.85,30.8,0.792,5.43,0.973,> 20
"CAL-33 (head and neck, adherent)",0.558,0.898,0.94,> 30,0.653,0.85,0.981,> 32,0.796,4.69,0.986,> 20
"SW948 (large intestine, adherent)",0.854,> 10,0.957,> 30,0.798,3.88,0.972,> 32,0.98,> 10,0.957,> 20
"HSC-4 (head and neck, adherent)",0.381,0.264,0.947,> 30,0.766,2.51,0.862,> 32,0.543,0.853,0.978,> 20
"TYK-nu (ovary, adherent)",0.524,0.73,0.931,> 30,0.814,3.03,0.973,> 32,0.729,2.95,0.952,> 20
"K2 (melanoma, adherent)",0.546,0.863,0.97,> 30,0.766,2.45,0.981,> 32,0.589,1.18,0.977,> 20
"KYSE-450 (oesophagus, adherent)",0.911,> 10,0.987,> 30,0.474,0.273,0.788,13.2,0.702,2.23,0.986,> 20
"SCC90 (head and neck, adherent)",0.736,4.01,0.961,> 30,,,0.935,> 32,0.733,3.89,,
"SK-MEL-30 (melanoma, adherent)",0.817,5.99,0.984,> 30,0.712,1.32,0.833,22.2,0.742,3.21,0.904,> 20
"HCC-78 (lung adenocarcinoma, adherent)",0.963,> 10,0.98,> 30,,,0.927,> 32,0.748,3.72,0.941,> 20
"STS-0421 (soft tissue, adherent)",0.939,> 10,0.97,> 30,,,0.954,> 32,0.613,1.35,,
"JHU-029 (head and neck, adherent)",0.767,4.55,0.958,> 30,,,0.715,9.46,0.56,0.947,,
"DMS-273 (small cell lung carcinoma, adherent)",0.913,> 10,,,0.461,0.249,0.856,28.2,0.723,2.8,0.954,> 20
"SW620 (large intestine, adherent)",0.562,0.901,0.949,> 30,0.666,0.874,0.731,8.28,0.799,4.18,,
"RPMI-7951 (melanoma, adherent)",0.795,4.49,,,0.54,0.41,0.804,15.4,0.83,6,0.9,> 20
"SK-N-SH (neuroblastoma, adherent)",0.881,> 10,,,0.636,0.758,0.856,25.5,0.958,> 10,0.935,> 20
"A2058 (melanoma, adherent)",0.803,4.34,,,0.784,1.92,0.736,8.64,0.744,2.83,0.99,> 20
"KYSE-410 (oesophagus, adherent)",0.667,1.88,,,0.742,1.66,0.872,> 32,0.779,4.35,0.979,> 20
"MKN28 (stomach, adherent)",0.863,9.02,,,0.687,1.09,0.843,23.4,0.676,1.97,0.965,> 20
"H290 (mesothelioma, adherent)",0.878,8.66,0.988,> 30,,,0.852,21.6,0.824,5.3,,
"AGS (stomach, adherent)",0.594,1.1,,,0.719,1.23,0.806,14.3,0.643,1.48,0.989,> 20
"TT2609-C02 (thyroid, adherent)",0.478,0.542,0.985,> 30,,,0.731,9.55,0.862,9.47,0.917,> 20
"HuP-T4 (pancreas, adherent)",0.568,0.971,,,0.563,0.481,0.872,> 32,0.705,2.46,0.874,> 20
